Results on 42 compounds are retold here after ChEMBL document CHEMBL4888484, “Replenishing the malaria drug discovery pipeline: Screening and hit evaluation of the MMV Hit Generation Library 1 (HGL1) against asexual blood stage Plasmodium falciparum ,using a nano luciferase reporter read-out” (2022).

Out of some 150,000 compounds screened, about 540 (0.36%) showed an effect of 50% or more. Some of the results follow.

The experiment relates to Plasmodium falciparum. Put plainly: Primary screen in NF54 nanoGlo assay, in single point, at 2uM, 72h; a lower Z score goes with more inhibition. The following applies: timepoint 72 hour. In kind it is functional, Erythrocyte.
As for `CCCO/C(=N/C(=O)c1cccc(OC)c1)NCc1ccccc1`, the “% Inhibition” value was determined as 2% and the Z score is -0.28.

`Cc1ccnc(NS(=O)(=O)c2ccc(NC(=O)c3cc(-c4ccccc4)on3)cc2)n1`: the “% Inhibition” value was found to be 4% and the Z score is listed as -0.52.

As to `CCn1c(=O)c(CCC(=O)Nc2cc(C)ccc2OC)nc2c(C)nn(-c3ccccc3)c21`, the “% Inhibition” value was 2% and the Z score is listed as -0.33.

For `COCCNC(=O)NCc1ccccn1`, the “% Inhibition” value is given as -9% and the Z score stood at 0.99.

Regarding `CC(C)C[C@H](C)N(C)C(=O)Cc1cccc(O)c1`, the “% Inhibition” value was 8% and the Z score was -1.03.

With `Cn1cc(NC(=O)Cn2ccc3cc(-c4ccc5c(c4)OCO5)ccc32)nn1`, the “% Inhibition” value is given as -3% and the Z score amounted to 0.26.

`CC(=O)N(Cc1ccccc1OS(C)(=O)=O)CC1CC1`: the “% Inhibition” value came to 1% and the Z score was -0.21.

Regarding `O=C(Nc1ccc2cccc(Cl)c2n1)c1c(C(F)(F)F)nc2n1CCCC2`, the “% Inhibition” value was -18% and the Z score came to 2.86.

On to `COCCC1(CNC(=O)NCc2ccccn2)CCC1`, for which the “% Inhibition” value is -2% and the Z score worked out at 0.37.

Consider `CCN1CC[C@H](Nc2nc3cc(C(F)(F)F)ccc3s2)C1=O`, for which the “% Inhibition” value is reported as -7% and the Z score is 0.89.

For the compound `CN(Cc1ccccc1)C(=O)CC[C@@H]1NC(=O)c2ccccc2N=C1O`, the “% Inhibition” value worked out at 4% and the Z score is reported as -0.5.

Turning to `COc1ncncc1NC(=O)NCC1CCOCC1`, the “% Inhibition” value was -4% and the Z score came out at 0.45.

On to `Cc1ccc2ncn(CC(=O)N3CCN(C4CC4)C[C@H](C)C3)c2c1`, for which the “% Inhibition” value turned out to be 2% and the Z score is -0.27.

`O=C1NC(=O)C2(CCN(S(=O)(=O)Cc3ccccc3)CC2)N1`: the “% Inhibition” value was -3% and the Z score was 0.63.

Regarding `O=C(NCCc1nnc[nH]1)c1cc(Cl)cc(Br)c1O`, the “% Inhibition” value is given as 0% and the Z score was 0.06.

Take `Cc1ccc(CNC(=O)[C@H]2CCc3ncncc3C2)n1C`: the “% Inhibition” value was -3% and the Z score was 0.61.

Regarding `CCc1noc(C)c1C(=O)NC1CCN(CC)CC1`, the “% Inhibition” value is listed as -14% and the Z score worked out at 1.91.

With `CCO[C@@H](C)c1nccn1Cc1nnc(C(C)C)o1`, the “% Inhibition” value is recorded as -3% and the Z score came out at 0.47.

Consider `Cc1cnc(NC(=O)N2CCOC3(CCOC3C)C2)cn1` (centres undefined), for which the “% Inhibition” value is recorded as -7% and the Z score is recorded as 1.07.

For `COc1ccc(N2C(=O)C3C4CC5C(OC2(C(C)C)C53)C4O)cc1` (centres undefined), the “% Inhibition” value is -6% and the Z score is listed as 0.92.

`CCN(CC)C(=O)[C@H](C1CCCC1)N1CCN(C(=O)Nc2ccc(C(C)C)cc2)CC1`: the “% Inhibition” value was -12% and the Z score was determined as 1.78.

For `CCc1ccc(C(=O)c2ccc(NCc3nnc(C(C)C)o3)cc2)o1`, the “% Inhibition” value is -4% and the Z score is 0.47.

With `Cc1cc(F)ccc1S(=O)(=O)N1CCC[C@H](Cn2cncn2)C1`, the “% Inhibition” value is 2% and the Z score is reported as -0.33.

Regarding `COc1cccc(Cn2nnc3cc(C(=O)N4CCN(c5cccc(Cl)c5)CC4)ccc32)c1`, the “% Inhibition” value is listed as -11% and the Z score was determined as 1.11.

Take `CC1CCN(C(=O)c2ccc(NCc3ccco3)nc2)CC1`: the “% Inhibition” value is -15% and the Z score stood at 2.11.

As for `Cn1cncc1C(=O)NC[C@H]1CC12CCCCC2`, the “% Inhibition” value was found to be 5% and the Z score is -0.66.

Regarding `CC1N(CCOC2CCCCO2)CCC12CCOCC2` (centres undefined), the “% Inhibition” value is 12% and the Z score was -1.74.

Take `O=C(c1ccc(F)c(F)c1)N1CC[C@H](Oc2ncccc2C(=O)N2CCCCC2)C1`: the “% Inhibition” value was -16% and the Z score was determined as 2.65.

Consider `Cc1cc(S(=O)(=O)Nc2cccc(CN3CCOCC3)n2)c(C)o1`, for which the “% Inhibition” value was -1% and the Z score is on record as 0.15.

As for `CC[C@]1(O)CCCN(C(=O)Cc2cc(C)ccn2)C1`, the “% Inhibition” value was -2% and the Z score is given as 0.3.

On to `C[C@H](NC(=O)CCCC(=O)N(C)C)c1c(Cl)ccc(F)c1Cl`, for which the “% Inhibition” value is listed as -9% and the Z score amounted to 1.29.

Turning to `CO[C@@H](C)C(=O)N1CC(n2cc(-c3ccccc3)nn2)C1`, the “% Inhibition” value is listed as -8% and the Z score amounted to 0.77.

Consider `CCCS(=O)(=O)N(CCOC)CC(=O)N(Cc1ccc(Cl)cc1)C1CCN(C(=O)Nc2ccccc2F)CC1`, for which the “% Inhibition” value was -1% and the Z score turned out to be 0.12.

With `CCCc1noc(-c2cc(-c3cccn3C)n[nH]2)n1`, the “% Inhibition” value is recorded as -1% and the Z score turned out to be 0.2.

For `COc1ccc(Cn2nc(C)n(-c3ccc(C(C)C)cc3)c2=O)cc1`, the “% Inhibition” value is on record as -6% and the Z score was 1.07.

Regarding `C#CCCC1(CCC(=O)N(C)Cc2ccoc2)N=N1`, the “% Inhibition” value was -16% and the Z score is 1.99.

As for `COC[C@H](Nc1ccc(Cc2nnc3n2CCC3)cc1)C1CC1`, the “% Inhibition” value is recorded as -3% and the Z score was 0.36.

As to `Cc1nn(Cc2nc(CC(C)C)no2)c(C)c1Br`, the “% Inhibition” value is reported as -12% and the Z score worked out at 1.12.

For `O=C(Nc1nccs1)C(F)(F)C(F)(F)C(F)(F)C(F)(F)C(F)(F)C(F)(F)C(F)(F)C(F)(F)C(F)(F)C(F)(F)Cl`, the “% Inhibition” value was 1% and the Z score is on record as -0.09.

With `COCc1cc(CNC(=O)C(C)(C)N2CCCC2)n[nH]1`, the “% Inhibition” value is 4% and the Z score is on record as -0.83.

Regarding `O=C(C[C@H]1Cn2cccc2C1=O)Nc1ccc(O)cc1`, the “% Inhibition” value was -10% and the Z score was 1.21.

For the compound `O=C(NCC1CCN(C(=O)c2nc(=O)[nH]c3ccccc23)CC1)[C@H]1CCOC1`, the “% Inhibition” value was -13% and the Z score turned out to be 2.47.

Usually % Inhibition stands for the relative decrease from the control value, in per cent.
